# In the supplement of paper PMC11417369:
# ± gives the standard deviation of the averaged measurements. Some of the results follow.
# Tested on: PfAP2-G AP2 domain (GST-tagged)
# Test: gcPBM binding intensity (ln(normalized median fluorescence intensity)); higher = stronger DNA binding
# Procedure, shortened: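 An Agilent 4 × 180k array of primer-extended double-stranded 36-bp intergenic genomic probes, with negative controls, was incubated for 1 h with GST-tagged P. falciparum DNA-binding domains expressed in E. coli. Alexa488 anti-GST antibody detected bound protein, scanned at 488 nm. Binding intensity is the highest Masliner-normalised natural-log median intensity across replicate spots of either probe orientation.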
row,Sequence,gcPBM binding intensity (ln)
1,CACAAAGGTCTGAAATTTTAGGGGTGCCTGGGACTA [CACACA_negctrl_site681],10.4 ± 0.34
2,ACCCAGTGTATTCATAGTACACGCTCATATATTATC [XGTACX_site423],11.1 ± 0.47
3,AGGTTTATAAAAAAAAAAAAAAAAAAAAAAAAAAAA [GTGCAC_negctrl_site113],9.62 ± 0.26
4,AAAATGTATGTAGTCTGTACAAATACTCTATAAATA [XGTACX_site6475],10.8 ± 0.5
5,TACAATTTTACTCATAAACACACATATATATGTTAT [CACACA_site9031],10.01 ± 0.057
6,AACAAGTTGCATGGTGCACACATGTATATATATCTA [CACACA_site2548],10.4 ± 0.4
7,TATATATATATATGTGCACACCAATTGTATGTAATA [CACACA_site3888],10.6 ± 0.42
8,TCATAAAAGATTAAGTGTACATGTGCTACTCTTATA [XGTACX_site6255],11.2 ± 0.79
9,AATATAAAATCAAGAAATTAAAAAAAAACAGAAAAC [CACACA_negctrl_site1004],9.915 ± 0.007
10,ACAAGATAATAGAGAAGTACTAATAAACATACACAA [XGTACX_site6617],11.1 ± 0.77
11,ATAATATAAATTAATTTACACACTAATAAATATATA [CACACA_site9259],9.98 ± 0.23
12,TATGTTCCTTTTTGTTGTACTGAAAAATTATGTTCA [XGTACX_site3981],11.5 ± 0.88
13,ATTTTAAATTTATCTGTGCACAGTATTATATAAGCA [GTGCAC_site9806],10.4 ± 0.21
14,TATTTATATTTATATACACACATACATATTTATATT [CACACA_site6535],9.915 ± 0.007
15,TTATATTAATAAAAAGAAAATCATTTTTTCTTTTAT [CACACA_negctrl_site1595],9.71 ± 0.19
16,ATATATATATTTATATTTATATGTAAATATCAACGT [TGCATGCA_negctrl_site32],9.96 ± 0.4
17,TATTTTGTAATAATTACACACGGAATTATAACAGAA [CACACA_site2355],10.1 ± 0.27
18,TCTTAATTTGTTATATGTACATAATATAATTGTATA [XGTACX_site5184],11.3 ± 0.77
19,TTAAACTTGTTTTGGATGCACTATATAATTCATTTT [GTGCAC_site9549],9.815 ± 0.021

row,Sequence,gcPBM binding intensity (ln)
1,ATTAAAATAATTTAATTTCTTAGACACAATTTGTAA [GTGCAC_negctrl_site331],9.84 ± 0.18
2,GTGTAAAGGTATTATTGTATTATTCAAAATAAAAAA [CACACA_negctrl_site637],10.3 ± 0.45
3,TCCTACATATTATAGTGTACATTTTCATGTTCATAT [XGTACX_site4308],11.2 ± 0.6
4,AAGTATTATATATTTTGTACATATATAAAACCACAA [XGTACX_site5508],10.9 ± 0.57
5,ATTGTGTTAATGAAATGTACATTTTCTCTACGTTAA [XGTACX_site1322],10.8 ± 0.47
6,AATATTATGTATAACCGTACATTATATATATAATAA [XGTACX_site1594],10.5 ± 0.35
7,TATAAAAATATTTCTACACACATTAATATATATATA [CACACA_site1150],9.93 ± 0.27
8,AATACTATTATTATTGCACACTTATTATCCCTCGGA [CACACA_site4262],10 ± 0.18
9,TATCCATTTCTTTATGTGCACATTAAATATATTTGT,10.6 ± 0.2
10,TATTTTTTCTTTCATTGTACTTTTTTTTTGTTTTGT [XGTACX_site4081],11.4 ± 0.85
11,AATGAGAAATATAATTGTACATATATTTATTTTCAT [XGTACX_site3669],11 ± 0.45
12,ATTTGTAAAAAATTCATACACACGTCTTATTTTTAA [CACACA_site1390],9.96 ± 0.014
13,AATATATAGAGAGATATGCACACTGTATGAATGCAC [CACACA_site2677],9.84
14,TATATTAATAATAAGTGTACATATATATATATTTTT [XGTACX_site288],11.3 ± 0.81
15,AAACAAAAAATTTAAAGTACAAAAATTATGATTGTT [XGTACX_site465],10.9 ± 0.57
16,AAAAAATTAATATTGACACACATTTTTAAGAATAAT [CACACA_site239],10.1 ± 0.16
17,TTTTTTTTTTTTTTTTTTTTTTTATCTATTATTTAT [XGTACX_negctrl_site496],9.59 ± 0.57
18,CAAAAGGATAGGCACACACACACACCCATATATATA [CACACA_site2199],10.2 ± 0.2
19,AATATGTCTATATTTTTTATATGGAAATATTATAAA [GTGCAC_negctrl_site700],9.93 ± 0.13

row,Sequence,gcPBM binding intensity (ln)
1,TAAAAGGAAAAAAAAGCACACACAATATTACTTGAA [CACACA_site8831],10 ± 0.14
2,TATCAAAATTAGTATACACACAAAATTATTCAAATA [CACACA_site2232],10 ± 0.23
3,TATACATATAAATTGTGTACACATATATATATATTT [XGTACX_site7875],11.6 ± 0.92
4,CTTTTTACTTAATACACACACACACTAGAAAAAAAA [CACACA_site4680],10.4 ± 0.42
5,AATATATAAATTAATACATGCACATATAGAAAGGGA [TGCATGCA_site472],10.2 ± 0.28
6,AATATAGTCACACATACACACATATAGATTTATATA [CACACA_site7223],10.1 ± 0.2
7,TTTTGTTGCTCTTTTTTTTTTTTTTTTAACTGTATG [CACACA_negctrl_site1072],9.945 ± 0.064
8,CTTTTCTTTTTTTTTTGTACATAAAATTATTCCTTA [XGTACX_site3924],11.1 ± 0.73
9,AACCAATATGTGTATACACACATAAATATAAATATA [CACACA_site7729],10.1 ± 0.25
10,AAAAAAAAAAAAAGGTGTACATAAGTAAATTCATAT [XGTACX_site4206],11.5 ± 0.8
11,TCATACTGTATATTTTGTACTTATATATATATTATA [XGTACX_site6136],11.2 ± 0.48
12,CATTATGTTGTAAATGCACACATACATATACACAGT [CACACA_site8990],10.3 ± 0.19
13,ACAGAATACATATACACACATACAAAAAAGTGCATA [CACACA_site987],10.3 ± 0.16
14,TATATAAACACGTACACACACATATAGGTATTTATA [CACACA_site7615],11.6 ± 1
15,TTATTTTGTTTTAAAAGTACACACTTTTAATTAGAT [XGTACX_site2271],11.6 ± 1.1
16,ATAATAAGCAAACACACACACACAAAAAAAAAAAAA [CACACA_site720],10 ± 0.63
17,TACAAAAGCGATACGGCACACATTTCCTGTTTAAAT [CACACA_site2746],10.21 ± 0.092
18,AAAAGATTGCTCCGCATGCACCTCCAAAAGTTCCTT [GTGCAC_site9993],9.925 ± 0.035
